{"source": "the supplement of paper PMC8728848", "binders": {"B1": {"name": "MGL6A (Homo sapiens) (protein)", "chain": "MTRTYENFQYLENKVKVQGFKNGPLPLQSLLQRLCSGPCHLLLSLGLGLLLLVIICVVGFQNSKFQRDLVTLRTDFSNFTSNTVAEIQALTSQGSSLEETIASLKAEVEGFKQERQAVHSEMLLRVQQLVQDLKKLTCQVATLNNNGEEASTEGTCCPVNWVEHQDSCYWFSHSGMSWAEAEKYCQLKNAHLVVINSREEQNFVQKYLGSAYTWMGLSDPEGAWKWVDGTDYATGFQNWKPGQPDDWQGHGLGGGEDCAHFHPDGRWNDDVCQRPYHWVCEAGLGQTSQESH"}}, "test_in_all_cases": "glycan array binding signal (z-score within array); higher = stronger binding", "conditions_in_all_cases": "glycan notation: IUPAC condensed, linker removed", "key": {"Gal(b1-3)GalNAc": {"target": "Gal(b1-3)GalNAc", "method_in_brief": "(§1)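 Arrays were curated from the Consortium for Functional Glycomics database, 3228 in total, and kept only where the protein sequence was available. Binding is expressed as a within-array Z-score. This score was averaged across arrays of the same protein sequence at different concentrations or buffers and across linkers, and negative values can be read as non-binding.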"}, "[1]": {"target": "Gal(b1-3)GalNAc(a1-3)[Fuc(a1-2)]Gal(b1-4)Glc", "method_in_brief": "as §1"}, "[2]": {"target": "Gal(b1-3)GalNAc(a1-3)[Fuc(a1-2)]Gal(b1-4)GlcNAc", "method_in_brief": "as §1"}, "Gal(b1-3)GalNAc(b1-3)Gal": {"target": "Gal(b1-3)GalNAc(b1-3)Gal", "method_in_brief": "as §1"}, "[3]": {"target": "Gal(b1-3)GalNAc(b1-3)Gal(a1-4)Gal(b1-4)Glc", "method_in_brief": "as §1"}, "[4]": {"target": "Gal(b1-3)GalNAc(b1-4)Gal(b1-4)Glc", "method_in_brief": "as §1"}, "[5]": {"target": "Gal(b1-3)GalNAc(b1-4)[Neu5Ac(a2-3)]Gal(b1-4)Glc", "method_in_brief": "as §1"}, "Gal(b1-3)GlcNAc": {"target": "Gal(b1-3)GlcNAc", "method_in_brief": "as §1"}, "[6]": {"target": "Gal(b1-3)GlcNAc(a1-3)Gal(b1-4)GlcNAc", "method_in_brief": "as §1"}, "[7]": {"target": "Gal(b1-3)GlcNAc(a1-6)Gal(b1-4)GlcNAc", "method_in_brief": "as §1"}, "Gal(b1-3)GlcNAc(b1-2)Man": {"target": "Gal(b1-3)GlcNAc(b1-2)Man", "method_in_brief": "as §1"}, "[8]": {"target": "Gal(b1-3)GlcNAc(b1-2)Man(a1-3)[Gal(b1-3)GlcNAc(b1-2)Man(a1-6)]Man(b1-4)GlcNAc(b1-4)GlcNAc", "method_in_brief": "as §1"}, "[9]": {"target": "Gal(b1-3)GlcNAc(b1-2)Man(a1-3)[Gal(b1-3)GlcNAc(b1-2)Man(a1-6)]Man(b1-4)GlcNAc(b1-4)[Fuc(a1-6)]GlcNAc", "method_in_brief": "as §1"}, "[10]": {"target": "Gal(b1-3)GlcNAc(b1-2)Man(a1-3)[GlcNAc(b1-4)][Gal(b1-3)GlcNAc(b1-2)Man(a1-6)]Man(b1-4)GlcNAc(b1-4)GlcNAc", "method_in_brief": "as §1"}, "[11]": {"target": "Gal(b1-3)GlcNAc(b1-2)[Gal(b1-3)GlcNAc(b1-6)]Man(a1-6)[Gal(b1-3)GlcNAc(b1-2)Man(a1-3)]Man(b1-4)GlcNAc(b1-4)GlcNAc", "method_in_brief": "as §1"}, "[12]": {"target": "Gal(b1-3)GlcNAc(b1-3)Gal(b1-3)GlcNAc", "method_in_brief": "as §1"}, "[13]": {"target": "Gal(b1-3)GlcNAc(b1-3)Gal(b1-4)Glc", "method_in_brief": "as §1"}, "[14]": {"target": "Gal(b1-3)GlcNAc(b1-3)Gal(b1-4)GlcNAc", "method_in_brief": "as §1"}, "[15]": {"target": "Gal(b1-3)GlcNAc(b1-3)Gal(b1-4)GlcNAc(b1-2)Man(a1-3)[Gal(b1-3)GlcNAc(b1-3)Gal(b1-4)GlcNAc(b1-2)Man(a1-6)]Man(b1-4)GlcNAc(b1-4)GlcNAc", "method_in_brief": "as §1"}, "[16]": {"target": "Gal(b1-3)GlcNAc(b1-3)Gal(b1-4)GlcNAc(b1-2)[Gal(b1-3)GlcNAc(b1-3)Gal(b1-4)GlcNAc(b1-6)]Man(a1-6)[Gal(b1-3)GlcNAc(b1-3)Gal(b1-4)GlcNAc(b1-2)Man(a1-3)]Man(b1-4)GlcNAc(b1-4)[Fuc(a1-6)]GlcNAc", "method_in_brief": "as §1"}, "[17]": {"target": "Gal(b1-3)GlcNAc(b1-3)Gal(b1-4)GlcNAc(b1-3)Gal(b1-4)GlcNAc(b1-2)[Gal(b1-3)GlcNAc(b1-3)Gal(b1-4)GlcNAc(b1-3)Gal(b1-4)GlcNAc(b1-6)]Man(a1-6)[Gal(b1-3)GlcNAc(b1-3)Gal(b1-4)GlcNAc(b1-3)Gal(b1-4)GlcNAc(b1-2)Man(a1-3)]Man(b1-4)GlcNAc(b1-4)[Fuc(a1-6)]GlcNAc", "method_in_brief": "as §1"}, "[18]": {"target": "Gal(b1-3)GlcNAc(b1-3)Gal(b1-4)GlcNAc(b1-6)[Gal(b1-3)GlcNAc(b1-3)]Gal(b1-4)Glc", "method_in_brief": "as §1"}, "[19]": {"target": "Gal(b1-3)GlcNAc(b1-3)Gal(b1-4)[Fuc(a1-3)]GlcNAc", "method_in_brief": "as §1"}, "[20]": {"target": "Gal(b1-3)GlcNAc(b1-3)Gal(b1-4)[Fuc(a1-3)]GlcNAc(b1-6)[Gal(b1-3)GlcNAc(b1-3)]Gal(b1-4)Glc", "method_in_brief": "as §1"}, "[21]": {"target": "Gal(b1-3)GlcNAc(b1-3)GalNAc", "method_in_brief": "as §1"}, "[22]": {"target": "Gal(b1-3)GlcNAc(b1-6)Gal(b1-4)GlcNAc", "method_in_brief": "as §1"}, "[23]": {"target": "Gal(b1-3)GlcNAc(b1-6)GalNAc", "method_in_brief": "as §1"}, "[24]": {"target": "Gal(b1-3)GlcNAc(b1-6)[Gal(b1-3)]GalNAc", "method_in_brief": "as §1"}, "Gal(b1-3)GlcNAc6S": {"target": "Gal(b1-3)GlcNAc6S", "method_in_brief": "as §1"}, "[25]": {"target": "Gal(b1-3)[Fuc(a1-4)]GlcNAc", "method_in_brief": "as §1"}, "[26]": {"target": "Gal(b1-3)[Fuc(a1-4)]GlcNAc(b1-2)Man", "method_in_brief": "as §1"}, "[27]": {"target": "Gal(b1-3)[Fuc(a1-4)]GlcNAc(b1-2)Man(a1-3)[Gal(b1-3)[Fuc(a1-4)]GlcNAc(b1-2)Man(a1-6)]Man(b1-4)GlcNAc(b1-4)GlcNAc", "method_in_brief": "as §1"}, "[28]": {"target": "Gal(b1-3)[Fuc(a1-4)]GlcNAc(b1-2)Man(a1-3)[Gal(b1-3)[Fuc(a1-4)]GlcNAc(b1-2)Man(a1-6)]Man(b1-4)GlcNAc(b1-4)[Fuc(a1-6)]GlcNAc", "method_in_brief": "as §1"}, "[29]": {"target": "Gal(b1-3)[Fuc(a1-4)]GlcNAc(b1-3)Gal(b1-3)[Fuc(a1-4)]GlcNAc", "method_in_brief": "as §1"}, "[30]": {"target": "Gal(b1-3)[Fuc(a1-4)]GlcNAc(b1-3)Gal(b1-4)GlcNAc", "method_in_brief": "as §1"}, "[31]": {"target": "Gal(b1-3)[Fuc(a1-4)]GlcNAc(b1-3)Gal(b1-4)[Fuc(a1-3)]GlcNAc", "method_in_brief": "as §1"}, "[32]": {"target": "Gal(b1-3)[Fuc(a1-4)]GlcNAc(b1-6)GalNAc", "method_in_brief": "as §1"}}, "note": "The other results are listed elsewhere or left out."}
{"binder": "B1", "values": [{"measurement": "glycan array binding signal (z-score)", "setting": "Gal(b1-3)GalNAc", "result": -0.271}, {"measurement": "glycan array binding signal (z-score)", "setting": "[1]", "result": -0.329}, {"measurement": "glycan array binding signal (z-score)", "setting": "[2]", "result": -0.178}, {"measurement": "glycan array binding signal (z-score)", "setting": "Gal(b1-3)GalNAc(b1-3)Gal", "result": -0.243}, {"measurement": "glycan array binding signal (z-score)", "setting": "[3]", "result": 0.788}, {"measurement": "glycan array binding signal (z-score)", "setting": "[4]", "result": -0.013}, {"measurement": "glycan array binding signal (z-score)", "setting": "[5]", "result": 0.46}, {"measurement": "glycan array binding signal (z-score)", "setting": "Gal(b1-3)GlcNAc", "result": -0.245}, {"measurement": "glycan array binding signal (z-score)", "setting": "[6]", "result": -0.256}, {"measurement": "glycan array binding signal (z-score)", "setting": "[7]", "result": -0.268}, {"measurement": "glycan array binding signal (z-score)", "setting": "Gal(b1-3)GlcNAc(b1-2)Man", "result": -0.249}, {"measurement": "glycan array binding signal (z-score)", "setting": "[8]", "result": -0.266}, {"measurement": "glycan array binding signal (z-score)", "setting": "[9]", "result": -0.256}, {"measurement": "glycan array binding signal (z-score)", "setting": "[10]", "result": -0.263}, {"measurement": "glycan array binding signal (z-score)", "setting": "[11]", "result": -0.294}, {"measurement": "glycan array binding signal (z-score)", "setting": "[12]", "result": -0.283}, {"measurement": "glycan array binding signal (z-score)", "setting": "[13]", "result": -0.274}, {"measurement": "glycan array binding signal (z-score)", "setting": "[14]", "result": -0.284}, {"measurement": "glycan array binding signal (z-score)", "setting": "[15]", "result": -0.261}, {"measurement": "glycan array binding signal (z-score)", "setting": "[16]", "result": -0.009}, {"measurement": "glycan array binding signal (z-score)", "setting": "[17]", "result": -0.086}, {"measurement": "glycan array binding signal (z-score)", "setting": "[18]", "result": -0.24}, {"measurement": "glycan array binding signal (z-score)", "setting": "[19]", "result": -0.256}, {"measurement": "glycan array binding signal (z-score)", "setting": "[20]", "result": -0.268}, {"measurement": "glycan array binding signal (z-score)", "setting": "[21]", "result": -0.253}, {"measurement": "glycan array binding signal (z-score)", "setting": "[22]", "result": -0.255}, {"measurement": "glycan array binding signal (z-score)", "setting": "[23]", "result": 3.91}, {"measurement": "glycan array binding signal (z-score)", "setting": "[24]", "result": -0.212}, {"measurement": "glycan array binding signal (z-score)", "setting": "Gal(b1-3)GlcNAc6S", "result": -0.252}, {"measurement": "glycan array binding signal (z-score)", "setting": "[25]", "result": -0.263}, {"measurement": "glycan array binding signal (z-score)", "setting": "[26]", "result": -0.207}, {"measurement": "glycan array binding signal (z-score)", "setting": "[27]", "result": 0.09}, {"measurement": "glycan array binding signal (z-score)", "setting": "[28]", "result": -0.173}, {"measurement": "glycan array binding signal (z-score)", "setting": "[29]", "result": -0.338}, {"measurement": "glycan array binding signal (z-score)", "setting": "[30]", "result": 1.02}, {"measurement": "glycan array binding signal (z-score)", "setting": "[31]", "result": -0.134}, {"measurement": "glycan array binding signal (z-score)", "setting": "[32]", "result": 1.19}]}
